B1: LINE1-mini (parent)
chain: GGCAGAGCUCAACACAGCGUGGCAAAGUGGCUGUGGCUAGACUGCC

Data on 56 variants can be found in the RNAGym collection of RNA variant scans (doi:10.7554/elife.90254).

Read counts are not given, so values of variants with three or more changes are uncertain.

Variants of B1 are the subject of this data set. Put plainly: self-cleavage, relative activity (ratio to wild type); higher = more cleavage; in vitro, sequencing; the parent is a self-cleaving ribozyme.
GGAAGAGCUCAACACAUCGUGGCACAGUGGCUGUGGCUAGACUGCC [C3A G17U A25C]: the self-cleavage is 0.24.

Consider GGAAUAGCUCAACACAGCGUUGCAAAGUGGCUGUUGCUAGACUGCC [C3A G5U G21U G35U], for which the self-cleavage was 0.45.

GGAAUAGCUCAACACAGCGUGGUAACGUGUCUGUGGCUAGACUGCC [C3A G5U C23U A26C G30U]: the self-cleavage worked out at 0.06.

Regarding GGAAGACGUCAACACAGCGUGGCAAAGUGGCUGUGGCUAGACUGCC [C3A G7C C8G], the self-cleavage is 0.16.

Take GGAAGAGCUCAACACAGCGUGGCAAAGUGGCUGUGGCUAGAGUGUC [C3A C42G C45U]: the self-cleavage was 0.08.

Regarding GGAAGAUCUCAACACACCGUGGCAAAGUGGCUGAGGCUAGACUGCC [C3A G7U G17C U34A], the self-cleavage worked out at 0.06.

For GGAAGAAAUCAACCCGGCGUGGCAAAGUGGCUGUGGCUAGACUGCC [C3A G7A C8A A14C A16G], the self-cleavage turned out to be 0.2.

As to GGAAAAGCUCAACACAGCGUGGCAAAAUGUUUGUGGCUAGACUGCC [C3A G5A G27A G30U C31U], the self-cleavage came out at 0.41.

As to GGAAUAUUUCAACACAGCGUGGCAAAGUGGCUGUAGCUAGACUGCC [C3A G5U G7U C8U G35A], the self-cleavage is 2.67.

Consider GGAACAGCUAAACACAGCGUGGCAAAGUGGCUGUGGCAAGACCGCC [C3A G5C C10A U38A U43C], for which the self-cleavage amounted to 0.03.

As to GGAAGAGCUCAACACACCGUGGCAAAGUGGCUGAGGGUAGACUGCA [C3A G17C U34A C37G C46A], the self-cleavage was 0.07.

Regarding GGAAGAACUCAACACAGCGUGGCAAAGUGGCUGUGCCUAGACUGCC [C3A G7A G36C], the self-cleavage came to 0.36.

GGAAGAGCUCAACACACCGUAGCAAAGUGGCUGUGGCUAGACUGCC [C3A G17C G21A]: the self-cleavage was determined as 0.22.

As to GGAAAAGCUCAACAAAGCGUGGCAAAGUGGCUGUGGCGAGACUGCC [C3A G5A C15A U38G], the self-cleavage is 0.12.

GGAAGAGCUCAACACACAGUGGCAAAGUGGCUGUGGCUAGACUGCC [C3A G17C C18A]: the self-cleavage stood at 0.28.

On to GGAACAGAUCAACACAGCGUGGCAAAUUGGCUGCGGCUAGACUGCC [C3A G5C C8A G27U U34C], for which the self-cleavage amounted to 0.24.

For the variant GGAAAAGCUCUACAAAGCGUGACAUAGUGGUUGUGGCUAGACUGCC [C3A G5A A11U C15A G22A A25U C31U], the self-cleavage was 0.01.

GGAAGAGCUCAACACAGCGUGGCAAAGUGGCUGUGGUUACACUGCC [C3A C37U G40C]: the self-cleavage stood at 0.14.

In the case of GGAAGAACUCAACAGAGCGUGGCAAAGUGGCUGUGGGUAGAUUGCC [C3A G7A C15G C37G C42U], the self-cleavage is 0.11.

GGAAAAGCUCAACACUGCGUGGCAAAGUGGCUGAUGCAAGACUGCC [C3A G5A A16U U34A G35U U38A]: the self-cleavage was found to be 0.13.

On to GGAAGAGCUCAACACAGCGUGGCAAAGUGGCUGUGGCUAGACUGUA [C3A C45U C46A], for which the self-cleavage amounted to 0.44.

With GGAAGAACUCAACAUAGCGUGGCAAAGUGGCUGUGGCUAGACUGCC [C3A G7A C15U], the self-cleavage is 0.24.

For the variant GGAAGAGCUCAACACACCGUGGCAAAGUGGCUGUGGCUAGACCGCC [C3A G17C U43C], the self-cleavage turned out to be 0.02.

Consider GGAACAGCUCAACACAGCGUGGCAAAGUUGCUGUGGCUAGAUUGCC [C3A G5C G29U C42U], for which the self-cleavage was 0.31.

In the case of GGAAUAGCUCAACACAGCGUGGCAAAGUGGCUGUGUCUAGAUUGCC [C3A G5U G36U C42U], the self-cleavage stood at 0.71.

For GGAAGAACUCAACACCGCGUGGCAAAGUGACUAUGGCUAGACUGCC [C3A G7A A16C G30A G33A], the self-cleavage was determined as 0.1.

With GGAAGAUAUCAACACAGCGAGGCAAAGUGGCUGUGGCUAGACUGCC [C3A G7U C8A U20A], the self-cleavage turned out to be 1.37.

Turning to GGAAGAGCUCAACACAGCGUGGCAAAGUGGCUGUGGCUAGAGUUCC [C3A C42G G44U], the self-cleavage was 0.03.

Take GGAAUAGUUCAACACAGCGUGGCAAAGUGGCUGUGGCUAGACUGCC [C3A G5U C8U]: the self-cleavage came to 0.14.

As for GGAAGACCUCAACACAGCGUGGCAAAGUGGAUGUCGCUAGACUGCU [C3A G7C C31A G35C C46U], the self-cleavage was 0.1.

In the case of GGAAGAGCUCAACACAUAGUGGCAUAGUGGCUGUGGCUAGACUGCC [C3A G17U C18A A25U], the self-cleavage was 0.17.

Take GGAAGAACCCAACACAGCGUGGCAAAGUGACUGUGGCUAGACUGCC [C3A G7A U9C G30A]: the self-cleavage was found to be 0.06.

With GGAAGACCUCAACACAGCAUGGAAAAGUGGCUGUGGCUAGACUGCC [C3A G7C G19A C23A], the self-cleavage amounted to 0.02.

For the variant GGAAAAUCUCAACGCAGCGUGGCAAAGUGUCUGUGGCUACACUGCC [C3A G5A G7U A14G G30U G40C], the self-cleavage turned out to be 0.24.

For GGAAGAGCUCAACACAGCGUGGCAAAGUGGCUGUGGGUUGACUGCC [C3A C37G A39U], the self-cleavage is 0.38.

In the case of GGAAGAGCUCAACACACCGUGGCAAAGUGGCUGUGGCUAGCCUGCC [C3A G17C A41C], the self-cleavage is 0.08.

Turning to GGAAUAGCUCAACACAGCGUGGCAAAUUGGCUGUGGCUAGACUGCC [C3A G5U G27U], the self-cleavage is 0.11.

In the case of GGAAGAGCUCAACACAGCGUGGCAAAGUGGCUGUGGUUAGACUGCU [C3A C37U C46U], the self-cleavage came out at 0.16.

Turning to GGAACAGCGCAACACCGCGUGGCAAAGUGGCUGUGGCUAGACUGCC [C3A G5C U9G A16C], the self-cleavage came out at 0.09.

In the case of GGAAGAGCUCAACACAGCGUGGCAAAGUGGCUGUGGCUAGACUGAU [C3A C45A C46U], the self-cleavage was 0.12.

As for GGAAGAGCUCAACACAACGUGGCAAAGUGGGUGUGGCUAGACUGCC [C3A G17A C31G], the self-cleavage stood at 0.07.

As for GGAAAAGCUCAACACAGCGUUGCAAAGUGGCUGUGGCUAGACUGCC [C3A G5A G21U], the self-cleavage is 0.42.

Regarding GGAAAAGCUUAACACAGCGUGGCAAAAUCGCUGUGGCUAGAAUGCC [C3A G5A C10U G27A G29C C42A], the self-cleavage is 0.01.

With GGAAAAGUUCAACACAGCGUGGCAAAGUGACUGUGGCUAGACUGCC [C3A G5A C8U G30A], the self-cleavage is 0.26.

Turning to GGAAGAACUCAACACAGCUUGGCAAACUGGCUAUGGCUAGACUGCC [C3A G7A G19U G27C G33A], the self-cleavage was determined as 0.06.

Turning to GGAAGAGCUCAACACACCGCGGCAAAGUCGCAGUGGCUAGACUGCC [C3A G17C U20C G29C U32A], the self-cleavage amounted to 0.08.

Take GGAAUAGCUCAACACAGCGUUGCAAAGUGGCUGUGGCUAGACUGCC [C3A G5U G21U]: the self-cleavage is 0.17.

In the case of GGAAGAACUCAACACAGCGUGGCAAAGUGGCUGUGGCUAGACUGGU [C3A G7A C45G C46U], the self-cleavage amounted to 0.22.

As to GGAAUAGGUGAACACAGCGUGGCAAAGUGGCUGUGGCUAGACUGCC [C3A G5U C8G C10G], the self-cleavage was determined as 0.05.

Regarding GGAACAGCUCACCACAGCUCGGCAAAAUGGCUGUGGCUAGAUUUCC [C3A G5C A12C G19U U20C G27A C42U G44U], the self-cleavage came out at 0.01.

Take GGAAGAGCUCAACACAGCGUGGCAAAGUGGCUGUGGUUGGACUGCC [C3A C37U A39G]: the self-cleavage stood at 0.03.

On to GGAAGAGCUCAACACAACGUGGCAAAGGGGCUCUGGCUAGACUGCC [C3A G17A U28G G33C], for which the self-cleavage stood at 0.02.

With GGAAAAGCUCAACACAGCGUGGCACAGUGGCUGUGGCUAGAUUGCC [C3A G5A A25C C42U], the self-cleavage was found to be 0.34.

Regarding GGAAGAGCUCAACACAGCGUGGCAAAGUGGGUAGGGCUAGACUGCC [C3A C31G G33A U34G], the self-cleavage is 0.04.

Take GGAAGAGCUCAACACACCGUGGCAAGGUGGCUGGGGCUACACUGCC [C3A G17C A26G U34G G40C]: the self-cleavage was determined as 0.01.

Turning to GGAAGAUCUCAAGACAGCGUGGCAAAGUGGCUGUAGCUACACUGCC [C3A G7U C13G G35A G40C], the self-cleavage was 0.14.
